Out of some 310,000 compounds screened, about 2,200 (0.71%) showed an effect of 50% or more. The effect is printed as a negative number. The list shows a part of the results.
What follows are molecules tested against human ether-à-go-go-related gene (hERG) potassium channel (human, UniProt Q12809) (assay: primary screen, population patch clamp on CHO cells stably expressing hERG).
Chain of human ether-à-go-go-related gene (hERG) potassium channel (Q12809 whole entry, looked up): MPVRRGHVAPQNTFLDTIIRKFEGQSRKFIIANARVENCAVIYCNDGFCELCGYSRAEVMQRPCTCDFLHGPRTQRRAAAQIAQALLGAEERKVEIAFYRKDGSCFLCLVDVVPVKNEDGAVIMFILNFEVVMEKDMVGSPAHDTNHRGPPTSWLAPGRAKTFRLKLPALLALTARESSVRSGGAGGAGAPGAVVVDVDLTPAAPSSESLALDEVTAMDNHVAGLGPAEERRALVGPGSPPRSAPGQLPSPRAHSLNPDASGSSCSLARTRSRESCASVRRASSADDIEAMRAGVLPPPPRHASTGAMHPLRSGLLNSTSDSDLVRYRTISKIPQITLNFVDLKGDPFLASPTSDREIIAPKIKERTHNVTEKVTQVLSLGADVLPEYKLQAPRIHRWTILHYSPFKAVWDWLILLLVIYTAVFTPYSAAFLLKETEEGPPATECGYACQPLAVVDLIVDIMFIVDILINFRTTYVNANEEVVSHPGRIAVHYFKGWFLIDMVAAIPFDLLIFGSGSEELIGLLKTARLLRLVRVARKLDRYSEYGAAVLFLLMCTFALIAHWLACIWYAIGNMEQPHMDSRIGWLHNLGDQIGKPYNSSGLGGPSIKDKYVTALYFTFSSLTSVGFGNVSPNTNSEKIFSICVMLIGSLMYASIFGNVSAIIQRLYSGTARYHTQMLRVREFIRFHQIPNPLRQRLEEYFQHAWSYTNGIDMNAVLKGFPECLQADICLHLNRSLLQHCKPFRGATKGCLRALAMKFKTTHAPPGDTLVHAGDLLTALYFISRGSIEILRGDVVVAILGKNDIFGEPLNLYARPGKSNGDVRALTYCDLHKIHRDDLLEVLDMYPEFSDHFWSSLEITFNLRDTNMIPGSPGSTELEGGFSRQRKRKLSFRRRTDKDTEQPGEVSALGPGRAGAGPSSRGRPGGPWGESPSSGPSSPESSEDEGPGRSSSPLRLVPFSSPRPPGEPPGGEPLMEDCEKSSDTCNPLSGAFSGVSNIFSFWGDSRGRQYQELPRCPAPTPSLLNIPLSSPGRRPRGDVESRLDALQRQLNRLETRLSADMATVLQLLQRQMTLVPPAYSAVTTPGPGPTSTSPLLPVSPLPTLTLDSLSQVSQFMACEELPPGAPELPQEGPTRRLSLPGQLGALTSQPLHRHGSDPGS

Row | Compound | hERG current change (%, negative = inhibition) at 1uM
1 | O=C(NNc1ccc([N+](=O)[O-])cc1)C1C2CCCCC21 (centres unmarked) | 7.22%
2 | CCCc1nn2c(=O)c(C(c3cccc(Cl)c3)c3c(O)nc4sc(CCC)nn4c3=O)c(O)nc2s1 | 20.7%
3 | CCn1c2ccc(C)cc2c2nc3cc(C(=O)O)ccc3nc21 | -2.82%
4 | CCN1C(=O)c2ccc(C(=O)Nc3c(C)cc(C)cc3C)cc2C1=O | 17.9%
5 | COc1cccc(NC(=S)NCc2cccnc2)c1 | 11.1%
6 | Cc1cccc(CSc2ccc(-c3ccco3)nn2)c1 | -1.15%
7 | O=C(COC(=O)c1cc([N+](=O)[O-])ccc1NCCO)NCc1cccs1 | 9.23%
8 | CCOC(=O)c1ccc(P(=O)(c2ccccc2)c2ccccc2)cc1 | 2.35%
9 | COc1ccc(-c2[nH]ncc2CN2CCN(C(=O)c3ccco3)CC2)cc1F | 17.4%
10 | COc1cccc(CNc2ncn[nH]2)c1OCc1ccc(F)cc1 | 10.2%
11 | COc1ccc(C2(CNC(=O)c3cc([N+](=O)[O-])cc([N+](=O)[O-])c3)CCCC2)cc1OC | 2.19%
12 | C/C(=N\NC(=O)c1cc(C2CC2)nc2ccccc12)c1ccc(C)s1 | 11.3%
13 | CC(=O)N(Cc1ccco1)C1(C(=O)NC2CCCC2)CCCCC1 | 19.3%
14 | O=C1CC(N2CCN(c3ccc(S(=O)(=O)N4CCOCC4)cc3)CC2)C(=O)N1Cc1ccccc1 (centres unmarked) | -1.33%
15 | Cc1cccc(NC(=O)CNC(=O)c2ccc3nc[nH]c3c2)c1C | 9.19%
16 | CCOc1ccc(-c2nnc(SCC(=O)N3CCOCC3)o2)cc1 | 8.43%
17 | CCOC(=O)C1CCN(C(=O)COc2ccc(Cl)cc2C)CC1 | -5.2%
18 | Cc1ccccc1S(=O)(=O)Cc1ccc(C(=O)NCCCN2CCN(C)CC2)o1 | 7.39%
19 | COC(=O)c1cn(-c2ccccc2)nc1-c1ccncc1 | 5.43%

Row | Compound | hERG current change (%, negative = inhibition) at 1uM
20 | CCCn1nnnc1NC(=O)COc1ccc(Br)cc1 | 10.7%
21 | O=C(N/C(=C/c1ccc(Br)cc1)C(=O)N1CCOCC1)c1ccc(Br)o1 | -26.3%
22 | CCc1cccc(OCC(=O)Nc2c[nH]c(=O)[nH]c2=O)c1 | 16.1%
23 | CN/C(=C\[N+](=O)[O-])NCCSCc1csc(CN(C)C)n1 | 14.7%
24 | Cc1cc(C)nc(NS(=O)(=O)c2ccc(N)cc2)n1 | 17.1%
25 | O=C1NC(=O)N(Cc2ccc(F)cc2)C(=O)/C1=C\c1ccc([N+](=O)[O-])s1 | 14.9%
26 | O=C1CCc2cc(S(=O)(=O)Nc3ccccc3)cc3c2N1CC3 | 5.11%
27 | Cc1nn(CCC(=O)NCc2ccc(OC(C)C)cc2)c(=O)c2nn(-c3ccccc3)c(C)c12 | 4%
28 | CCCCc1ccc(N2C(=O)[C@@H]3C(CC(N)=O)NC4(C(=O)Nc5ccc(F)cc54)[C@@H]3C2=O)cc1 (some centres unmarked) | -1.85%
29 | Cc1ccc(S(=O)(=O)N2CCN(C(=O)CSc3nnnn3C)C2)cc1 | 5.15%
30 | CCOC(=S)SCC(=O)N1CCc2cc(OC)ccc2C1C1C(=O)CCCC1=O (centres unmarked) | 15.1%
31 | COCCNC(=O)c1cc(S(=O)(=O)N2CCCCC2)ccc1N1CCOCC1 | 13.7%
32 | CN(C)CC#CCCCCCCC#CCN(C)C | 9.63%
33 | Cc1ccc(NCc2nnc(SCC(=O)Nc3ncc(C)s3)n2Cc2ccco2)c(C)c1 | 11.8%
34 | CC(=O)c1ccc(OCCCC(=O)N2CCN(S(=O)(=O)c3cc(C)ccc3C)CC2)cc1 | 3.54%
35 | O=C(CCN1C(=O)C2CCCCC2C1=O)Nc1cc([N+](=O)[O-])ccc1Cl (centres unmarked) | 9.41%
36 | Fc1ccc(-c2nnc(Cc3ccc(Cl)cc3)o2)cc1 | 2.18%
37 | Cc1ccc(-n2c(C)cc(C(=O)Cn3nc(C(=O)O)c4ccccc4c3=O)c2C)cc1 | 17.1%
38 | COc1ccc(OC)c(S(=O)(=O)N2CCCCC2C(=O)N2CCN(c3ccccn3)CC2)c1 (centres unmarked) | -18.2%

Row | Compound | hERG current change (%, negative = inhibition) at 1uM
39 | CCOC(=O)CC(=O)Nc1ccc(Br)cc1C(=O)O | -2.84%
40 | O=C(CCn1nc(-c2ccc(Cl)cc2)ccc1=O)N1CCOCC1 | 2.56%
41 | CCN(CC)P(=O)(Oc1cccc(C)c1)N(CC)CC | 7.71%
42 | Cc1ccccc1NS(=O)(=O)c1nnc(NC(=O)c2ccc(Cl)cc2)s1 | 4.38%
43 | CCCCC(CC)CNC(=O)Cn1c(=S)[nH]c2ncccc2c1=O (centres unmarked) | 9.91%
44 | O=C(Nc1ccccc1Cl)Nc1ccnn1C1CCN(C(=O)c2cscn2)CC1 | 18.1%
45 | C=C1c2cc(C)c(C)cc2NC(=O)N1c1ccccc1 | 19.5%
46 | Cc1cc(S(=O)(=O)N2CCCCC2CCNC(=O)C(=O)NCc2cccnc2)ccc1F (centres unmarked) | 7.01%
47 | O=[N+]([O-])c1ccc(Oc2ccc(Oc3ccc(C(F)(F)F)cn3)cc2)nc1 | 13.5%
48 | CCOCCCNC(=O)C(NC(=O)c1cnccn1)c1ccc(OC)cc1 (centres unmarked) | 9.56%
49 | N#Cc1cc2c(nc1SCc1cccc(Cl)c1)CCCCC2 | 9.9%
50 | O=C(NC12CC3CC(CC(C3)C1)C2)c1cccnc1 | -4.04%
51 | COc1cccc(C2SCC(=O)N2c2ccc(C)cc2)c1OC (centres unmarked) | -1.11%
52 | COc1ccc(C(=O)N/C(N)=N/c2nc3ccccc3o2)cc1 | 3.02%
53 | COC(=O)c1c(NC(=O)c2ccnn2C)sc(C)c1C | 4.23%
54 | COc1ccc(-c2noc(CCCC(=O)Nc3ccc(C(N)=O)cc3)n2)cc1OC | 4.34%
55 | O=C(O)CCN(CCC(=O)O)c1ccccc1 | 4.84%
56 | C#CCOCCOCCOCCNc1nc(N2CCN(C(=O)CCCCCCCCCCNC(=O)[C@H](CO)n3cc(CCCSC)nn3)CC2)nc(N2CCN(C(=O)CCCCCCCCCCNC(=O)[C@@H]([C@H](C)O)n3cc(C)nn3)CC2)n1 | 12.9%
